Among all 360,000 compounds or so, about 520 (0.14%) were called active. Inconclusive results, whose numbers are uncertain, are shown with a selection of clear calls. The call rests on the fitted dose curve; in most records, active means well fitted inhibition curve with a large enough effect; inconclusive means small, poorly fitted or top-dose-only effect; inactive means no such curve, though single readings can be large or run the other way. Potencies of inconclusive entries are left out as doubtful fits.
The compounds below were run against Rap guanine nucleotide exchange factor 3 (Homo sapiens) (UniProt O95398) (assay: qHTS for Antagonist of cAMP-regulated guanine nucleotide exchange factor 3 (EPAC1): primary screen). Conditions: EPAC1 GEF assay, Rap1b-BODIPY-GDP exchange fluorescence; series mostly up to 115 µM.
Further: nearly all actives have a fitted effect of over 50% in size.
Potency means the concentration at half of the fitted maximal effect; tags describe the fitted curve by direction and shape.

Chain of UniProt O95398 (O95398 whole entry, looked up): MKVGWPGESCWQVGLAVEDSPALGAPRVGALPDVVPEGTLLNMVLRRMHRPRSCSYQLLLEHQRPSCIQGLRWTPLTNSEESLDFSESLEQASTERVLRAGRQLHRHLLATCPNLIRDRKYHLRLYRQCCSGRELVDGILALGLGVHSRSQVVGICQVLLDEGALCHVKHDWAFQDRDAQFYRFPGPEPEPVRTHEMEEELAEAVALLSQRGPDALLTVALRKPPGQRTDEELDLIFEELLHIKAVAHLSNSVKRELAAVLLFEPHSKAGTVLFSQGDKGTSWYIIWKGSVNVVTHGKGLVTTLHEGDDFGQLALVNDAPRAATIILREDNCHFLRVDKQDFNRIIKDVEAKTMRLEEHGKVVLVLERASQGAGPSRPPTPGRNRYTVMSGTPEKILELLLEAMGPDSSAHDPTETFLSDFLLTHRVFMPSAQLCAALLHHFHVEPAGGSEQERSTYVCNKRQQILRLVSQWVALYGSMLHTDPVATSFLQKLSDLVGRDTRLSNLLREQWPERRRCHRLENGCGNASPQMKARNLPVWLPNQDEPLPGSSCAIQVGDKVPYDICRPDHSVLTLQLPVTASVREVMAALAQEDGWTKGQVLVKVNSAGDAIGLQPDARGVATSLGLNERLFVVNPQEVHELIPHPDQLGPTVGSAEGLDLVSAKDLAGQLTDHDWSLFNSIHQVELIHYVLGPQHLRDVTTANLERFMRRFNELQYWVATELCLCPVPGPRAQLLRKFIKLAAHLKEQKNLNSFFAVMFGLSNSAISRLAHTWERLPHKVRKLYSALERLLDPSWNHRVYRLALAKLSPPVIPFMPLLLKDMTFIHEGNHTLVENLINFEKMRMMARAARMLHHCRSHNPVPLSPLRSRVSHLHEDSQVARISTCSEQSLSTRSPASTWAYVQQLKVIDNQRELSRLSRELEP

Compound	Potency
Cc1csc2c(=O)sc(NC(=O)c3ccc(F)cc3Cl)nc12	inconclusive [inhibitor, single point]
CCOC(=O)Cc1csc(NC(=O)COc2ccc3ccccc3c2)n1	inconclusive [inhibitor, single point]
CCOC(=O)c1cc(C#N)c(Oc2ccccc2OC)nc1-c1ccccc1	inconclusive [inhibitor, partial curve]
Cc1[nH][nH]c(=O)c1C(c1c(C)[nH][nH]c1=O)c1cn(Cc2ccccc2Cl)c2ccccc12	inconclusive [inhibitor, single point]
Clc1ccc2c(NCc3ccccn3)ccnc2c1	inconclusive [inhibitor, single point]
COc1cc(C=C2Cc3ccccc3C2=O)cc(OC)c1OC	inactive
O=C(COC(=O)C1(c2ccc(F)cc2)CCCC1)N1CCc2ccccc21	inconclusive [inhibitor, partial curve]
CCOc1ccc(/C=C/C(=O)N2CCOCC2)cc1OC	inconclusive [inhibitor, full curve, poor fit]
Cc1cc(S(=O)(=O)NCC(c2ccc(F)cc2)N2CCN(C)CC2)ccc1F (stereo unspecified)	inconclusive [inhibitor, partial curve]
CC(=O)Oc1ccc(C(=O)Nc2cccc(C(=O)c3cccc(NC(=O)c4ccc(OC(C)=O)cc4)c3)c2)cc1	inconclusive [inhibitor, partial curve]
COc1ccc2[nH]c(=O)c(CNc3ccccc3)cc2c1	inactive
CC(C)C[C@@H]1CC2=C(C(=O)OC(C)(C)O2)[C@H](CCc2ccccc2)O1	inactive
Cc1ccc(NC(=O)c2ccc(S(=O)(=O)N3CCCC3)cc2)cc1	inconclusive [inhibitor, partial curve]
CCN1CCN(c2cc(N3CCN(C(=O)c4ccco4)CC3)c3c4c(onc24)-c2ccccc2C3=O)CC1	inconclusive [inhibitor, partial curve]
C[C@H](CO)N1C[C@H](C)[C@H](CN(C)C(=O)C2CC2)OCc2cnnn2CCCC1=O	inactive
CCc1c(-c2ccc(Cl)cc2)ncn1Cc1cccc(-c2ccccc2)c1	inactive
Cc1ccc2nc(C)c(C(=O)NN=C3CCCCCC3)n2c1	inconclusive [inhibitor, full curve, poor fit]
CC(C)c1cc(C(=O)Nc2cccc(Cl)c2)no1	inactive
CSc1ccc(/C=C/C(=O)c2c(O)cc(C)oc2=O)cc1	inconclusive [inhibitor, partial curve]
COC(=O)Nc1ccc(S(=O)(=O)N2CCCC(C(=O)N3CCN(C)CC3)C2)cc1 (stereo unspecified)	inconclusive [inhibitor, single point]
O=C(CSc1nc2c(cnn2-c2ccc(F)cc2)c(=O)[nH]1)N1CCCCC1	inactive
Nc1c(Cl)cc(NC(=O)c2ccccc2C(=O)O)cc1Br	inconclusive [inhibitor, single point]
Cc1nc(CN(C)c2ncnc3ccc(-c4ccc5c(c4)OCO5)cc23)cs1	inactive

Compound	Potency
Cc1c(N)c(C(C)(C)C)cc(C(C)(C)C)c1[N+](=O)[O-]	inactive
COC(=O)C[C@@H]1CC[C@H](NC(=O)Cc2ccccn2)[C@@H](CO)O1	inactive
C[C@H]1CN([C@@H](C)CO)S(=O)(=O)c2ccc(Br)cc2O[C@H]1CN(C)C(=O)CCN1CCCCC1	inconclusive [inhibitor, single point]
Cc1ccc(S(=O)(=O)c2cc3c(=O)n4ccccc4nc3n(Cc3ccco3)c2=N)cc1C	inconclusive [inhibitor, single point]
CCOC(=O)c1c(N2C(=O)Nc3cc(Cl)c(Cl)cc3N2O)sc2c1CCCCC2	active: 50.1 µM
O=C(CN1C(=O)/C(=C/c2ccccc2F)Sc2ccccc21)NCc1cccnc1	inconclusive [inhibitor, full curve]
COc1ccc(C(=O)CCN2CCN(c3ccccc3F)CC2)cc1	inactive
Cc1[nH]c2ccccc2c1/C=N/NS(=O)(=O)c1ccccc1	inconclusive [inhibitor, single point]
Cn1cccc1Cc1nnc(SCC(=O)Nc2ccc(F)cc2)n1CCc1ccccc1	inconclusive [inhibitor, partial curve]
CCOC(=O)c1c(NC(=O)c2ccccc2Br)sc2c1CCc1ccccc1-2	inactive
CCCCNC(=O)CNC(=S)N(Cc1ccccc1F)C1CCCCC1	inconclusive [inhibitor, single point]
COc1ccc(/C=C/C(=O)c2ccc([N+](=O)[O-])o2)cc1OC	inconclusive [inhibitor, partial curve, poor fit]
COc1ccc(C(=O)Nc2cccc(NC(=O)c3cccs3)c2)cc1OC	inactive
C#Cc1cccc(Nc2nc(NCc3ccccc3OC)nc3ccsc23)c1	inactive
COc1ccc(C(=O)COC(=O)CNC(=O)c2cccs2)cc1Br	inconclusive [inhibitor, single point]
O=S(=O)(c1ccc2c(c1)OCCO2)N1CCN(Cc2ccccc2)CC1	inactive
Brc1cccc(OCCN2CCc3ccccc3C2)c1	inconclusive [inhibitor, single point]
COC(=O)Cc1c(C)[nH]n(-c2cc(Cl)cc(Cl)c2)c1=O	inconclusive [inhibitor, single point]
Cc1cccc(CS(=O)(=O)Cc2ccc(C(=O)NC(C)c3ccccc3)o2)c1 (stereo unspecified)	inactive
O=C(/C=C/c1cccs1)c1ccc([N+](=O)[O-])cc1	inactive
CC(=O)N1N=C(c2cccc(NS(C)(=O)=O)c2)CC1c1ccc2c(c1)OCO2 (stereo unspecified)	inactive
CC(=O)C1=C(O)C(=O)N(Cc2cccnc2)C1c1ccc(C(C)C)cc1 (stereo unspecified)	inconclusive [inhibitor, single point]
O=C(NCc1ccc2c(c1)OCO2)c1ccc(-c2ccc(Cl)cc2)o1	inconclusive [inhibitor, single point]
